The results in this text go back to paper PMC6367348.

Protein sequences, listed by entry. Tags and fused reporters are not part of them.
UniProt Q13131: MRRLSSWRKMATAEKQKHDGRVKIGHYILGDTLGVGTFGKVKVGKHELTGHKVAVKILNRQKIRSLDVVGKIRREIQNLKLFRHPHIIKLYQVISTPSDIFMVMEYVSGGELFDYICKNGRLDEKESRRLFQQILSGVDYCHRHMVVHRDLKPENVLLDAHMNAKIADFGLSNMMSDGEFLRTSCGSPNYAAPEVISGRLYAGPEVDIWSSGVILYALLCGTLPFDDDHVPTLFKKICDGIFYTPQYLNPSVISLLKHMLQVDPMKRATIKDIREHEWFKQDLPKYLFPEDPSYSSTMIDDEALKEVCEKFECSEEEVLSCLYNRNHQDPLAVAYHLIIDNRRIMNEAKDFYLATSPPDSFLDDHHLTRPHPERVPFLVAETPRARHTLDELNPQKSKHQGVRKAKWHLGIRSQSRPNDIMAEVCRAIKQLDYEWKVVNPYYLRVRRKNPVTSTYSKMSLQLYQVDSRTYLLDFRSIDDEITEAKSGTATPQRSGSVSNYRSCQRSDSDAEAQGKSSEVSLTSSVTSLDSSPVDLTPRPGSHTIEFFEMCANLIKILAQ
UniProt Q9UKV5: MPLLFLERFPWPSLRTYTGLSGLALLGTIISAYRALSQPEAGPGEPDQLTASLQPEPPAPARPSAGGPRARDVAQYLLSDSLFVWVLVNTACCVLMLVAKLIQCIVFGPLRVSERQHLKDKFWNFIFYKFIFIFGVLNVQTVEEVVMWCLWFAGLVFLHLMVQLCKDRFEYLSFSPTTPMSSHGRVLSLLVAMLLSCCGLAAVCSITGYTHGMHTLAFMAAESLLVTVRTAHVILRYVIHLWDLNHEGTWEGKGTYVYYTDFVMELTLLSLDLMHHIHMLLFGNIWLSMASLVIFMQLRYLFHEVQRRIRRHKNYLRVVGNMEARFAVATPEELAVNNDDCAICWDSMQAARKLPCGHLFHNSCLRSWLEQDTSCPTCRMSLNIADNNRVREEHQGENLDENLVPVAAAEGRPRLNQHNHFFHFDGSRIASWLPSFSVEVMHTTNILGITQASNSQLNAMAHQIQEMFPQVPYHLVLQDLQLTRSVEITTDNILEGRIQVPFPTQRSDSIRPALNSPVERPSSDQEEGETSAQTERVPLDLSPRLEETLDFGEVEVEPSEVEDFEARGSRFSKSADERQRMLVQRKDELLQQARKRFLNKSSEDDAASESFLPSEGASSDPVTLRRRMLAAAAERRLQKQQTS

The target of experiment [1] is T1, FLAG-tagged human Insig-2 (human) (UniProt Q9Y5U4).
T1 sequence: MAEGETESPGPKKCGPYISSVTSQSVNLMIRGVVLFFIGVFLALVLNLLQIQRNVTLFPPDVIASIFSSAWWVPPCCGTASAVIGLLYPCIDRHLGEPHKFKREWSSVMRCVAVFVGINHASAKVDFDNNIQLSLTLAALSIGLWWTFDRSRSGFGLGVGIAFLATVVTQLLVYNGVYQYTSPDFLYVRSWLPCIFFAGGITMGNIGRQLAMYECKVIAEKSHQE
The experiment in a line: co-IP; HEK293 cells co-transfected for 24 h, no A769662; lysate (50 mM Tris-HCl pH 8.0, 1% Nonidet P-40, 150 mM NaCl) incubated with FLAG antibodies and protein A/G-Sepharose beads at 4 °C overnight; immunoblot. On the technique in general: In western blotting, separated proteins are transferred to a membrane and probed.

Experiment [2] has as its target T2, FLAG-tagged Insig-1 (human) (UniProt O15503).
T2 sequence: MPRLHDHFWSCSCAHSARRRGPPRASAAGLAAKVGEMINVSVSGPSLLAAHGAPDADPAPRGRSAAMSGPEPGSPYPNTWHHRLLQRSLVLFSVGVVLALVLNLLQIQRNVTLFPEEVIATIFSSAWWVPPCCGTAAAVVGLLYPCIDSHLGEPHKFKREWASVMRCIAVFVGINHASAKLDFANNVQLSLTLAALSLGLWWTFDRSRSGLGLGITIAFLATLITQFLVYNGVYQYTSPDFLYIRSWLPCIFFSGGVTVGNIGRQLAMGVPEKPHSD
The description is as above.

The target of experiment [3] is T1, FLAG-tagged human Insig-2 (human). The experiment in a line: condition: only cells treated with 100 μM A769662 for 8 h; co-IP; As a1, but cells treated with 100 μM A769662 (AMPK agonist) for 8 h before lysis; FLAG antibodies and protein A/G-Sepharose beads; immunoblot.
The target of experiment [4] is T2, FLAG-tagged Insig-1 (human). Described as above.
A further experiment addresses GST-tagged AMPKα1 (UniProt Q13131). Description: pull-down; HEK293 cells co-transfected with myc-Insig-1 and increasing GST-AMPKα1 (48 h), or for 24 h followed with or without 100 μM A769662 for 8 h; lysates incubated with Glutathione Sepharose beads at 4 °C overnight; immunoblot with myc or GST antibodies.

These are yes or no findings as the source states them, for the method shown. In cells and extracts the contact can be indirect. Some results given as binding are weak or reduced against the parent protein; the word gives no strength. Where a sequence is shown, tags or fusion partners need not be part of it.

Consider “myc-tagged gp78 (from UniProt Q9UKV5 1-643) (enzyme)”, for which the binding result in experiment [1] is “binds”; in experiment [2], “binds”; in experiment [3], “no binding”; in experiment [4] it was “no binding”.

B1: myc-tagged Insig-1 (protein, UniProt O15503 1-277)
chain: MPRLHDHFWSCSCAHSARRRGPPRASAAGLAAKVGEMINVSVSGPSLLAAHGAPDADPAPRGRSAAMSGPEPGSPYPNTWHHRLLQRSLVLFSVGVVLALVLNLLQIQRNVTLFPEEVIATIFSSAWWVPPCCGTAAAVVGLLYPCIDSHLGEPHKFKREWASVMRCIAVFVGINHASAKLDFANNVQLSLTLAALSLGLWWTFDRSRSGLGLGITIAFLATLITQFLVYNGVYQYTSPDFLYIRSWLPCIFFSGGVTVGNIGRQLAMGVPEKPHSD
Consider B1, for which the binding entry with GST-tagged AMPKα1 was “binds”.
